This note sets out measurements from PMC5892938.

The other results are listed elsewhere or left out. Construct or isoform of the protein are uncertain.

This experiment deals with GST-SBP-ILF3 (Homo sapiens) (UniProt Q12906). Kind of experiment: targeted RNA Bind-n-Seq. The settings on record: RBNS binding buffer: 25 mM Tris pH 7.5, 150 mM KCl, 3 mM MgCl2, 0.1% Tween, 0.5 mg/mL BSA, 1 mM DTT; 27 nM protein, 750 pM RNA pool; temperature not stated; high values mean tight binding; sequences stand for … in GGGUAAAAGCGAGGUGAA…CGGGACAAGUAUUAUGGG
Turning to “UUUUUUUUUUGAGAGUGAUCCACUCUCCGG [tttttgagapaired]”, the binding signal (log2 fold change) came to 0.0329.

With “GUGUGUGGUGUUGGUUCCUAACACCGCAUA [gtspaired]”, the binding signal (log2 fold change) was -0.491. To “GGUGUGUGUGUUGGUAUCUAACACAUAUAC [gtspaired]” belongs -0.631.

On to “UUCUCUCUUCCUCCGUGGGAGGAGGGGAGA [ctspaired]”, for which the binding signal (log2 fold change) is -0.471.

On to “UUUUUUUUUUGAGAACGGAACGUUCUCCAG [tttttgagapaired]”, for which the binding signal (log2 fold change) is -0.0938.

On to “UUCUUCCUUCCUCCGCGGGAGGAGGGGAGA [ctspaired]”, for which the binding signal (log2 fold change) is -0.592. In the case of “UUUUUUUUUUGAGAUGGAAGCCAUCUUCUA [tttttgagapaired]” it was -0.0872; in that of “UUUUUUUUUUGAGAUGGGGACCAUCUCCUA [tttttgagapaired]”, 0.219.

Consider “UUUUUUUUUUGAGAUGGCGUCCAUCUCCGG [tttttgagapaired]”, for which the binding signal (log2 fold change) amounted to 0.706.

For “GUGUGUUGUGUUGGCUUCUAACACAGCACG [gtspaired]”, the binding signal (log2 fold change) is -0.827. In the case of “UUUUUUUUUUGAGAGGGUAACCCUCUUCUA [tttttgagapaired]” it was -0.048. In the case of “GUUGGUGGUGUUGGCGUCUAACACCGCCGA [gtspaired]” it was -0.417; in that of “GGUGGUUGUGUUGGUACCUAACACAGCCGC [gtspaired]”, -0.471. In the case of “GUGGUUGGUGUUGGAUCCUAACACCAGCCG [gtspaired]” it was -0.502.

On to “GGUGGUUGUGUUGGAACCUAACACAGCUAC [gtspaired]”, for which the binding signal (log2 fold change) was -0.855. With “UUUUUUUUUUGAGACCGAGUCGGUUUCCUA [tttttgagapaired]”, the binding signal (log2 fold change) was 0.62.

Regarding “UUUUUUUUUUGAGAUCGGGUCGAUCUUCUG [tttttgagapaired]”, the binding signal (log2 fold change) was found to be 0.422. In the case of “GUUGUGUGUGUUGGUCCCUAACACACGCGA [gtspaired]” it was -0.469; in that of “GUUGUGUGUGUUGGUUCCUAACACACGCGA [gtspaired]”, -0.558.

For the sequence “UUUUUUUUUUGAGAACGUGACGUUCUCCAG [tttttgagapaired]”, the binding signal (log2 fold change) came out at 0.31. To “UUUUUUUUUUGAGAUGGCUGCCAUCUCCAG [tttttgagapaired]” belongs 0.531; to “UUUUUUUUUUGAGACGGUUUCUGUCUCCUA [tttttgagapaired]”, 0.226; to “GUGUGGUGUGUUGGCCCCUAACACACCAUA [gtspaired]”, -0.146. In the case of “GUUGUGUGUGUUGGUGUCUAACACACGCAG [gtspaired]” it was -0.621.

Turning to “UUCUCCUCUCCUCCGCUGGAGGGGAGGGGA [ctspaired]”, the binding signal (log2 fold change) was -0.616. In the case of “UUUUUUUUUUGAGACGGAGUCCGUUUCCUG [tttttgagapaired]” it was 0.653; in that of “UUUUUUUUUUGAGAUCGGUCCGAUCUCCGG [tttttgagapaired]”, 0.293. In the case of “UUUUUUUUUUGAGAGCGUGACGUUCUUCUG [tttttgagapaired]” it was 0.606. To “GUGUGUGGUGUUGGUCUCUAACACCGCACG [gtspaired]” belongs -0.741; to “UUCCUCUCUCCUCCAAGGGAGGGGGGAGGA [ctspaired]”, -0.0694. For “GGUUGGUGUGUUGGUGUCUAACACAUCAGC [gtspaired]”, the binding signal (log2 fold change) was -0.603. As to “UUUUUUUUUUGAGACGGUGGCCGUUUCCUA [tttttgagapaired]”, the binding signal (log2 fold change) was found to be 0.767.

Regarding “UUUUUUUUUUGAGACGGUGUCUGUCUCCAG [tttttgagapaired]”, the binding signal (log2 fold change) turned out to be 0.926. To “UUCCUCUCUCCUCCUAGGGAGGGGGGAGGA [ctspaired]” belongs -0.29.

Regarding “UUUUUUUUUUGAGAGGGAUCCCCUCUUCUA [tttttgagapaired]”, the binding signal (log2 fold change) is -0.0409. In the case of “GUGUGUUGUGUUGGAACCUAACACAACGCG [gtspaired]” it was -0.699; in that of “UUUUUUUUUUGAGAGUGACCCACUCUCCAG [tttttgagapaired]”, 0.867; in that of “UUUUUUUUUUGAGAGCGAACCGCUCUUCUA [tttttgagapaired]”, -0.252.

Take “UUCCUUCUUCCUCCGCUGGAGGGAGAGGGA [ctspaired]”: the binding signal (log2 fold change) was -0.44. In the case of “UUUUUUUUUUGAGACGGACUCCGUCUCCUA [tttttgagapaired]” it was 0.215; in that of “GUGGUGUGUGUUGGCGUCUAACACAUACCG [gtspaired]”, -0.663; in that of “GGUGGUGGUGUUGGCUCCUAACACCGCCGC [gtspaired]”, -0.84.

In the case of “UUUUUUUUUUGAGAGGGGCUCCUUCUCCAG [tttttgagapaired]”, the binding signal (log2 fold change) is 0.375. In the case of “UUUUUUUUUUGAGAGCGUGACGCUCUCCGG [tttttgagapaired]” it was 0.0991.

“UUUUUUUUUUGAGAGCGGGGCGUUCUCCAG [tttttgagapaired]”: the binding signal (log2 fold change) was found to be 0.613. To “UUUUUUUUUUGAGAUGGCUACCAUCUCCUA [tttttgagapaired]” belongs 0.319; to “UUUUUUUUUUGAGACCGAACCGGUCUUCUA [tttttgagapaired]”, 0.326. To “UUUUUUUUUUGAGACGGUAACCGUCUUCUG [tttttgagapaired]” belongs 0.397.

On to “UUUUUUUUUUGAGAGCGGUGCGUUCUCCUA [tttttgagapaired]”, for which the binding signal (log2 fold change) came to 0.285. To “GUGUGUGGUGUUGGUGCCUAACACCGCACG [gtspaired]” belongs -0.519; to “UUUUUUUUUUGAGAGUGAUACACUCUCCUG [tttttgagapaired]”, 0.0839. In the case of “UUUUUUUUUUGAGAUGGUGGCUAUCUCCUA [tttttgagapaired]” it was 0.86. As for “GGUUGGUGUGUUGGAGUCUAACACAUCAAC [gtspaired]”, the binding signal (log2 fold change) is -0.617. As to “UUUUUUUUUUGAGACCGUGUCGGUCUUCUG [tttttgagapaired]”, the binding signal (log2 fold change) was 0.729. With “GGUUGGUGUGUUGGCGCCUAACACAUCAGC [gtspaired]”, the binding signal (log2 fold change) was -0.691. To “GGUGUGUGUGUUGGCCUCUAACACACGCGC [gtspaired]” belongs -0.92; to “GUUGUGUGUGUUGGACCCUAACACACACAG [gtspaired]”, -0.367; to “UUUUUUUUUUGAGAGCGGAACGUUCUUCUA [tttttgagapaired]”, 0.208. To “UUUUUUUUUUGAGACGGUUGCCGUUUCCAG [tttttgagapaired]” belongs 0.594; to “UUUUUUUUUUGAGAGGGGCCCCCUCUUCUG [tttttgagapaired]”, 0.949. As for “UUUUUUUUUUGAGACCGGGACGGUCUCCAG [tttttgagapaired]”, the binding signal (log2 fold change) worked out at 0.42. To “GGUGUUGGUGUUGGAUUCUAACACCGAUAC [gtspaired]” belongs -0.549; to “GUGGUGUGUGUUGGCACCUAACACAUACCG [gtspaired]”, -0.549.

Consider “UUUUUUUUUUGAGAGUGGCGCAUUCUCCAG [tttttgagapaired]”, for which the binding signal (log2 fold change) came out at 0.581. In the case of “GUGGUUGGUGUUGGUAUCUAACACCGACCG [gtspaired]” it was -0.601; in that of “UUUUUUUUUUGAGAGCGAUGCGCUCUCCUG [tttttgagapaired]”, 0.226; in that of “GUGGUUGGUGUUGGCGCCUAACACCAAUCA [gtspaired]”, 0.00792. Turning to “UUUUUUUUUUGAGAUGGUAUCUAUCUCCAG [tttttgagapaired]”, the binding signal (log2 fold change) was 0.047.

Turning to “GUGUUGUGUGUUGGUACCUAACACACAGCG [gtspaired]”, the binding signal (log2 fold change) was -0.587.

Consider “GGUGUUGGUGUUGGUCUCUAACACCAGCGC [gtspaired]”, for which the binding signal (log2 fold change) is -0.385. Regarding “UUUUUUUUUUGAGAUCGAGUCGAUCUUCUA [tttttgagapaired]”, the binding signal (log2 fold change) is -0.0664. Regarding “UUUUUUUUUUGAGAGCGGGUCGUUCUCCUA [tttttgagapaired]”, the binding signal (log2 fold change) was 0.233.

Regarding “UUUUUUUUUUGAGACGGCGACCGUUUCCUA [tttttgagapaired]”, the binding signal (log2 fold change) stood at 0.639. In the case of “UUUUUUUUUUGAGAGCGUGGCGUUCUCCGG [tttttgagapaired]”, the binding signal (log2 fold change) came to 0.512. To “UUCUUCUCUCCUCCUGGGGAGGGGGGAAGA [ctspaired]” belongs -0.247; to “UUUUUUUUUUGAGAUGGACACUAUCUCCGG [tttttgagapaired]”, 0.406; to “UUUUUUUUUUGAGAUCGAGGCGAUCUUCUA [tttttgagapaired]”, 0.181. As for “UUUUUUUUUUGAGAGGGCGUCCCUCUCCUA [tttttgagapaired]”, the binding signal (log2 fold change) was 0.914.

Consider “UUUUUUUUUUGAGACUGCAACAGUCUCCAG [tttttgagapaired]”, for which the binding signal (log2 fold change) turned out to be 0.427. To “UUUUUUUUUUGAGACUGCUCCAGUCUCCAG [tttttgagapaired]” belongs 0.881; to “GUGGUGUGUGUUGGUAUCUAACACAUACCA [gtspaired]”, -0.631; to “UUUUUUUUUUGAGAGCGGAGCGUUCUCCUA [tttttgagapaired]”, 0.783. In the case of “GUGUGGUGUGUUGGACUCUAACACACCGCG [gtspaired]” it was -0.487; in that of “UUUUUUUUUUGAGAGGGCUGCCCUCUCCUG [tttttgagapaired]”, 1.32; in that of “UUUUUUUUUUGAGAUCGACGCGAUCUCCAG [tttttgagapaired]”, 0.563.

In the case of “GGUGUGUGUGUUGGCAUCUAACACAUAUAC [gtspaired]”, the binding signal (log2 fold change) is -0.566. To “UUUUUUUUUUGAGAGGGAAACCCUCUCCUG [tttttgagapaired]” belongs -0.0843; to “UUUUUUUUUUGAGACUGUAUCAGUCUCCGG [tttttgagapaired]”, 0.219; to “GUGGUUGGUGUUGGUCCCUAACACCGACUA [gtspaired]”, -0.538. In the case of “UUUUUUUUUUGAGACCGUCACGGUCUUCUA [tttttgagapaired]” it was 0.397; in that of “GUGUGUGGUGUUGGCAUCUAACACCGCACG [gtspaired]”, -0.776. For the sequence “UUCUCCUCUCCUCCUGGGGAGGGGGGGAGA [ctspaired]”, the binding signal (log2 fold change) is -0.287.

“UUUUUUUUUUGAGAUGGGGGCCAUCUUCUA [tttttgagapaired]”: the binding signal (log2 fold change) was found to be 0.605. To “GUUGUGUGUGUUGGCACCUAACACACGCAA [gtspaired]” belongs -0.451; to “UUUUUUUUUUGAGACCGCGGCGGUCUCCGG [tttttgagapaired]”, 0.879. In the case of “UUUUUUUUUUGAGACGGUUCCUGUCUCCUA [tttttgagapaired]” it was 0.567; in that of “UUUUUUUUUUGAGAGGGUCUCCCUCUCCUA [tttttgagapaired]”, 0.716. “UUUUUUUUUUGAGAGCGGGACGCUCUUCUG [tttttgagapaired]”: the binding signal (log2 fold change) stood at 0.261.

As to “UUUUUUUUUUGAGACUGGGUCAGUCUCCUG [tttttgagapaired]”, the binding signal (log2 fold change) was found to be 0.409. To “GUUGGUGGUGUUGGCUCCUAACACCAUCAA [gtspaired]” belongs -0.235.

As to “GGUGGUUGUGUUGGACUCUAACACAGCCGC [gtspaired]”, the binding signal (log2 fold change) is -0.395. “GUGUGUUGUGUUGGCAUCUAACACAGCACG [gtspaired]”: the binding signal (log2 fold change) was -0.697. In the case of “UUUUUUUUUUGAGAUGGGUACCAUCUUCUG [tttttgagapaired]” it was 0.444.
